# Experimental data taken from PubChem BioAssay AID938 (National Center for Advancing Translational Sciences (NCATS), 2007).
# Out of some 73,000 compounds screened, about 1,800 (2.5%) were called active. Inconclusive results, whose numbers are uncertain, are shown with a selection of clear calls. The call rests on the fitted dose curve; in most records, active means well fitted activation curve with a large enough effect; inconclusive means small, poorly fitted or top-dose-only effect; inactive means no such curve, though single readings can be large or run the other way. Potencies of inconclusive entries are left out as doubtful fits.
# Test: qHTS Assay for Agonists of the Thyroid Stimulating Hormone Receptor: Activators of Intracellular cAMP Concentrations in Parental HEK 293; further: nearly all actives have a fitted effect of over 55% in size; on activation: % of control where 0% means no effect
# Conditions: parental HEK293 CNG cAMP sensor, membrane potential fluorescence; activation: at 57.1 µM (top of the series) unless noted
# In short: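 Counterscreen for endogenous-receptor signalling: CNG-channel HEK 293 cells report cAMP rise by membrane depolarization. After 60 min dye equilibration with 100 uM RO 20-1724, compounds incubated 30 min before bottom-read fluorescence at 590 nm.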
# Potency means the concentration at half of the fitted maximal effect; tags describe the fitted curve by direction and shape.
SMILES,activation,Potency
CCCCc1c(C)nn(-c2nnc3c4ccccc4n(CC)c3n2)c1C,inactive: 21.5%,
COc1ccc(NC(=O)N2CCC3(CC2)CCN(S(C)(=O)=O)CC3)cc1,inactive: 11.6%,
Cc1cc(C)c(C#N)c(SCS(=O)c2ccc(C(C)(C)C)cc2)n1 (stereo not drawn),,"inconclusive [activator, single point]"
COc1ccccc1OCCC(=O)OCCN1C(=O)c2ccccc2C1=O,,"inconclusive [activator, single point]"
O=C(Nc1ccc(CN2CCOCC2)cc1)c1ccc(-c2ccc(Br)cc2)o1,,active: 25.1 µM
COC(=O)c1ccc(NC(=O)CCn2c(=O)oc3ccccc32)cc1,inactive: 3.23%,
CC(=O)c1c(C)[nH]c(C(=O)N2CCc3ccccc32)c1C,,"inconclusive [activator, single point]"
Cc1ccc(C)c(N2CCN(C(=O)CN3C(=O)c4ccccc4C3=O)CC2)c1,,"inconclusive [activator, full curve, poor fit]"
CCOC(=O)C(C)n1nc(C)c2sc3ccccc3c2c1=O (stereo not drawn),,"inconclusive [activator, partial curve]"
O=C(CC12CC3CC(CC(C3)C1)C2)N1CCCOC1,,"inconclusive [activator, full curve, poor fit]"
Cc1cc(NCCN2CCOCC2)n2ncc(-c3ccccc3)c2n1,inactive: -12.8%,
N#CCn1nnc(-c2ccc3c(c2)OCO3)n1,,"inconclusive [activator, single point]"
Cc1cnc(C(=O)Nc2cccc3cccnc23)cn1,inactive: 9.94%,
Cc1ccc(C)c(OCC(=O)Nc2ccc3c(c2)OCO3)c1C,,"inconclusive [activator, single point]"
CCOc1ccc(N(CC(=O)NC2CCCC2)S(=O)(=O)c2c(C)noc2C)cc1,,"inconclusive [activator, full curve, poor fit]"
Cc1cc(N2CCN(C(=O)c3ccco3)CC2)n2nc(-c3cccc(Cl)c3)cc2n1,,"inconclusive [activator, single point]"
CCc1ccc2[nH]c(=O)c(CN(CCN(CC)CC)C(=O)NC3CCCCC3)cc2c1,,"inconclusive [activator, single point]"
CCOC(=O)C1CCN(C(=O)c2oc3ccc(S(=O)(=O)N4CC(C)CC(C)C4)cc3c2C)CC1 (stereo not drawn),,"inconclusive [activator, partial curve]"
CCN(CC)CCN1C(=O)c2ccccc2NC1c1cccc(F)c1 (stereo not drawn),,"inconclusive [activator, single point]"
C#CCOC(=O)NC(/C=C/CCCC)c1ccccc1 (stereo not drawn),,"inconclusive [activator, partial curve]"
O=C(C1CCC1)N1CCc2cc(S(=O)(=O)NCc3ccco3)ccc21,,"inconclusive [activator, single point]"
c1ccc(N(c2ccccc2)c2nc(N3CCCC3)nc(-n3ccnc3)n2)cc1,,"inconclusive [activator, partial curve]"
O=C(CCCn1c(SCC(=O)c2ccc(Cl)cc2)nc2ccccc2c1=O)NCc1ccco1,,"inconclusive [activator, full curve]"
C=CCSC1=N/C(=C\c2ccc3c(c2)OCO3)C(=O)S1,inactive: 14.9%,
COC(=O)/C=c1\sc2ncnn2c1=O,,"inconclusive [activator, single point]"

SMILES,activation,Potency
Cn1c(=O)[nH]c2ncn(C)c2c1=O,,"inconclusive [activator, single point]"
C[C@](N)(COP(=O)(O)O)C(=O)O,inactive: 18.2%,
CCCc1nc2sc3c(SCC(=O)NCc4ccco4)ncnc3c2c2c1CCC2,,"inconclusive [activator, single point]"
Cc1nc(N)c(C#N)c(-c2ccccc2)c1C,inactive: 6.53%,
CN1C(=O)CC[C@@H]1c1cccnc1,,inactive
Cc1ccc(-c2nnc(-c3ccc(Br)cc3)o2)o1,,"inconclusive [activator, partial curve]"
COc1cccc(-c2nc(CS(=O)(=O)CC(=O)NCc3ccccc3OC)c(C)o2)c1,,"inconclusive [activator, partial curve]"
N#C/C(=C\c1ccc(O)c(O)c1)C(=O)OCCc1cccs1,inactive: -14.8%,
COCCn1c(=O)c(-c2ccc(Cl)cc2)nc2cncnc21,,"inconclusive [activator, single point]"
Cn1c(=O)cnc2cnc(OCc3ccccc3)nc21,,"inconclusive [activator, single point]"
CN1CCc2c(sc(NC(=O)c3ccc(S(=O)(=O)N4CCOCC4)cc3)c2C(N)=O)C1,,"inconclusive [activator, partial curve]"
Cc1cc(C)n(C(=O)c2cccc(S(=O)(=O)N3CCCC3)c2)n1,,"inconclusive [activator, single point]"
c1ccc2nc(N3CCCC3)c(N3CCCC3)nc2c1,,"inconclusive [activator, single point]"
Nc1nonc1-c1nc2ccccc2n1Cc1ccc(F)cc1,,active: 20 µM
O=c1c(-c2cc(F)cc(F)c2)nc2cnc(N3CCNCC3)nc2n1Cc1cccs1,inactive: -6.76%,
Cc1cccc(OCc2nc(-c3nonc3N)no2)c1C,,"inconclusive [activator, single point]"
COc1ccc(-c2csc(NC(=O)C3CCCO3)n2)cc1 (stereo not drawn),,"inconclusive [activator, single point]"
Cn1c(C(=O)NC2CCCCC2)cc2sccc21,,"inconclusive [activator, partial curve, poor fit]"
Cc1c(C(=O)O)oc2c3c(ccc12)OCCO3,inactive: 18.3%,
Cc1cc(C)n(-c2nc3c(c(=O)[nH]c(=O)n3C)n2CCc2ccccc2)n1,,"inconclusive [activator, single point]"
c1ccc(N2CCN(c3ncnc4sc5c(c34)CCC5)CC2)cc1,,"inconclusive [activator, single point]"
COC(=O)C/C=C\[C@@H](C)[C@@H](/C=N\OCC[C@H]1C=C[C@H](OC(C)=O)[C@@H](COC(C)=O)O1)NS(=O)(=O)c1ccc(C)cc1,inactive: 6.41% [at 11.4 µM],
CN1CCN(CCCC(=O)c2ccc(F)cc2)CC1,,"inconclusive [activator, single point]"
Clc1ccc(OCc2nc(-c3ccncc3)no2)c(Cl)c1,,active: 25.1 µM
Cc1nc(C)c(C(=O)C2=C(O)C(=O)N(CCCn3ccnc3)C2c2ccc(Cl)cc2)s1 (stereo not drawn),,"inconclusive [activator, single point]"

SMILES,activation,Potency
O=C(Nc1nc(-c2ccc(S(=O)(=O)N3CCCC3)cc2)cs1)c1ccco1,,"inconclusive [activator, single point]"
Cc1[nH]nc2c1C(c1ccccc1)C1=C(CC(C)(C)CC1=O)N2 (stereo not drawn),,"inconclusive [activator, partial curve]"
CN/C(=C\[N+](=O)[O-])NCCSCc1ccc(CN(C)C)o1,,"inconclusive [activator, single point]"
Cc1cccc(OCC(=O)Nc2ccccc2N2CCCCC2)c1,,"inconclusive [activator, single point]"
CCOC(=O)C1CCCN(S(=O)(=O)c2c(C)c(C)cc(C)c2C)C1 (stereo not drawn),,"inconclusive [activator, partial curve, poor fit]"
CCn1c(=O)n(CC(=O)NC2CCCC(C)C2C)c(=O)c2ccccc21 (stereo not drawn),,active: 25.1 µM
CN(C)c1oc(-c2ccc(OCc3ccccc3)cc2)nc1C#N,inactive: 11.1%,
COC(=O)c1ccc2c(c1)SC1=C(CCCC1=O)N2,inactive: -5.63%,
CCC/C=C(\CCC)C(NS(=O)(=O)c1ccc(C(F)(F)F)cc1)c1ccc(-c2ccccc2)cc1 (stereo not drawn),inactive: -0.993%,
COc1ccccc1-c1ccc2ncnc(N(C)Cc3ccco3)c2c1,,active: 3.16 µM
CS(=O)(=O)N1CCN(c2ccccc2NC(=O)c2cccs2)CC1,,"inconclusive [activator, partial curve]"
Cc1ccc(NC(=O)CC2Oc3ccc(C)cc3NC2=O)cc1 (stereo not drawn),,"inconclusive [activator, single point]"
CCC(=O)Nc1cc2c(cc1C(=O)c1ccccc1)OCCO2,inactive: 16.9%,
COc1cc(C(=O)Nc2ccc3c(c2)OCCO3)ccc1OC(F)F,,"inconclusive [activator, single point]"
CCc1nnc(NC(=O)NCN2C(=O)C3C4C=CC(C4)C3C2=O)s1 (stereo not drawn),,"inconclusive [activator, single point]"
C[C@H]1CN(CCO)CCN1c1ccccc1,inactive: -0.263% [at 11.4 µM],
COc1ccc(-c2cc(C(=O)N/N=C/c3ccc(OC)c(OC)c3)[nH]n2)cc1,inactive: -1.51%,
CCOC(=O)CN1CC23C=CC(O2)C(C(=O)NC2CCCCCC2)C3C1=O (stereo not drawn),,"inconclusive [activator, single point]"
Cc1ccc(-n2nc3ccc(N)cc3n2)cc1,inactive: -3.23%,
COCCn1nnnc1C(c1ccccc1OC)N1CCN(c2ccccc2F)CC1 (stereo not drawn),,active: 7.94 µM
CCOC(=O)c1ccc(NC(=O)c2cccc(S(=O)(=O)N3CCOCC3)c2)cc1,inactive: 21%,
Cc1ccc(-n2ncc3c(=O)n(-c4ccc(C)c(C)c4)c(C)nc32)cc1,,"inconclusive [activator, single point]"
O=C(NC1CCCCC1)C(c1ccco1)N(Cc1cccnc1)C(=O)C1COc2ccccc2O1 (stereo not drawn),,active: 15.8 µM
